# Laboratory results: PubChem BioAssay AID485294 (National Center for Advancing Translational Sciences (NCATS), 2010)
# About 150 (0.041%) of roughly 370,000 compounds were called active. The shares of active, inactive and inconclusive entries below differ from those in the screen. The call rests on the fitted dose curve; in most records, active means well fitted inhibition curve with a large enough effect; inconclusive means small, poorly fitted or top-dose-only effect; inactive means flat fitted curve, though single readings scatter. No potency is given beside an inconclusive call; the fits are too rough.
# Target: Beta-lactamase (Escherichia coli (strain K12)) (UniProt P00811)
# Experiment: qHTS Inhibitors of AmpC Beta-Lactamase (assay with detergent); further: nearly all actives have a fitted effect of over 25% in size
# Settings: AmpC hydrolysis of nitrocefin, absorbance 480 nm, 0.01% Triton; series mostly up to 114 µM
# Method in brief: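 20 mM phosphate pH 7.0 + 0.01% (detergent screen) or 0.0001% Triton X-100; 5.3 nM AmpC reagent; cpd preinc 15 min RT; nitrocefin (800 uM stock) to start; A480 q20 s × 4 min; Activity was normalised to no-enzyme and no-compound control wells.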
# Potency means the concentration at half of the fitted maximal effect; tags describe the fitted curve by direction and shape.
# UniProt P00811, sequence (P00811 whole entry, looked up): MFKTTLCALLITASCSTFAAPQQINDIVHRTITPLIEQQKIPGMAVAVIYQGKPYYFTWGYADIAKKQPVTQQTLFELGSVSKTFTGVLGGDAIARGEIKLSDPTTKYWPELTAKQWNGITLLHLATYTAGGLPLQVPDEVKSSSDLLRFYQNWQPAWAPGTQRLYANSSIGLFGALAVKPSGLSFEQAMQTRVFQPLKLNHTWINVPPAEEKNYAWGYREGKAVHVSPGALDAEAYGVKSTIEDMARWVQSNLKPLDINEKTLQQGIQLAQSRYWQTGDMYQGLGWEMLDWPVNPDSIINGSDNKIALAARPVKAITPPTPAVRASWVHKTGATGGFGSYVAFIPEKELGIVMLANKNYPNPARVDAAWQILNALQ
row,Structure (SMILES),Potency
1,COc1ccc(C)cc1Nc1nc(N)c2ccccc2n1,inactive
2,CC(=O)OCC(=O)Nc1c(C)cc(C)cc1C,"inconclusive [inhibitor, partial curve]"
3,O=C(NC(=S)NCCCN1CCOCC1)c1cccc2ccccc12,"inconclusive [inhibitor, full curve]"
4,CC1(C)CC(=O)C(C=Nc2cccnc2/N=C/C2=C(O)CC(C)(C)CC2=O)=C(O)C1,inactive
5,O=C(Nc1cccc(Cl)c1)N1CCSc2ccccc21,inactive
6,COc1ccccc1NC(=O)CSc1nc2ccccc2nc1N1CC(C)OC(C)C1 (stereo not drawn),"inconclusive [inhibitor, partial curve, poor fit]"
7,COc1ccc(NC(=S)NCCc2c[nH]c3ccc(OC)cc23)c(OC)c1,"inconclusive [inhibitor, partial curve, poor fit]"
8,COc1ccc(OCC(=O)Nc2ccc(NC(=O)c3ccco3)c(C)c2)cc1,"inconclusive [inhibitor, full curve, poor fit]"
9,O=C(CCCOc1ccccc1)N1CCN(C(=O)c2ccco2)CC1,"inconclusive [inhibitor, full curve, poor fit]"
10,CN(C(=O)C1CCN(S(=O)(=O)c2cccs2)CC1)C1CCCCC1,"inconclusive [inhibitor, full curve, poor fit]"
11,Cc1[nH]c2ccccc2c1C(=O)COc1ccccc1F,inactive
12,COc1cccc(C(C(=O)NC(C)(C)C)N(Cc2ccc(C)cc2)C(=O)CCC(=O)Nc2cc(C)on2)c1OC (stereo not drawn),inactive
13,C/C(=N/NC(=O)c1ccc(-c2ccccc2)cc1)c1cccc(O)c1,inactive
14,O=S(=O)(NCCC1=CCCCC1)c1ccccc1Br,"inconclusive [inhibitor, single point]"
15,Cc1ccc2nc3c(cc(C(=O)NCCc4ccccc4)c(=N)n3CC3CCCO3)c(=O)n2c1 (stereo not drawn),"inconclusive [inhibitor, full curve, poor fit]"
16,O=[N+]([O-])c1cc(C(F)(F)F)ccc1N1CCN(S(=O)(=O)c2ccc3ccccc3c2)CC1,inactive
17,O=C(NCCCN1CCN(c2cccc(Cl)c2)CC1)C1CCC(=O)N1Cc1ccccc1Cl (stereo not drawn),"inconclusive [inhibitor, partial curve]"
18,COc1cccc(Cn2c(Oc3ccccc3)nc3c2c(=O)n(C)c(=O)n3C)c1,"inconclusive [inhibitor, single point]"
19,COc1cc(NC(=O)c2ccccc2)c(OC)cc1NC(=O)CN1C(=O)N(C)C2(CCCCC2)C1=O,"inconclusive [inhibitor, full curve]"
20,c1ccc(-c2ccccc2OCCCN2CCCCCC2)cc1,"inconclusive [inhibitor, full curve]"
21,CCC(=O)Nc1cccc(C(=O)N(Cc2ccccc2)Cc2ccccc2)c1,"inconclusive [inhibitor, full curve, poor fit]"
22,Cc1ccc(-n2[nH]c(C)c(/C=N/NC(=O)c3ccc(O)cc3O)c2=O)cc1,inactive
23,Brc1cnc2nc[nH]c2c1,inactive

row,Structure (SMILES),Potency
1,CC(/C=N/NC(=O)c1sc(N)nc1C)=C\c1ccccc1,inactive
2,COc1ccccc1-c1sc2ccccc2c1-c1ccc2c(c1)OCCO2,inactive
3,COc1ccc(C)cc1NC(=O)C1CCN(S(=O)(=O)c2cccs2)CC1,"inconclusive [inhibitor, full curve, poor fit]"
4,CCCc1cc(=O)[nH]c2nnc(SCC(=O)N3CC(C)OC(C)C3)n12 (stereo not drawn),"inconclusive [inhibitor, full curve, poor fit]"
5,CC1(C)O[C@@H]2C[C@H]3[C@@H]4CCC5=CC(=O)CC[C@]5(C)[C@@]4(F)[C@@H](O)C[C@]3(C)[C@]2(C(=O)CCl)O1,"inconclusive [inhibitor, full curve, poor fit]"
6,O=C(Nc1ccccc1)C(c1ccccc1)C1CCCC1 (stereo not drawn),"inconclusive [inhibitor, partial curve]"
7,CC(C)(C)NS(=O)(=O)c1ccc(CCC(=O)NCc2ccco2)cc1,"inconclusive [inhibitor, full curve]"
8,COc1cc(C(=O)NCC(c2cccnc2)N2CCN(c3ccccc3)CC2)cc(OC)c1OC (stereo not drawn),"inconclusive [inhibitor, full curve]"
9,COc1cc2c(=O)c(S(=O)(=O)c3ccc(F)cc3)cn(Cc3ccc(Cl)cc3)c2cc1OC,inactive
10,CCOC(=O)c1cccc(NC(=O)C2(S(=O)(=O)c3ccc(Cl)cc3)CC2)c1,"inconclusive [inhibitor, full curve, poor fit]"
11,O=C(O)c1ccc(N/N=C/c2ccncc2)cc1,"inconclusive [inhibitor, single point]"
12,COc1ccc(Cn2c(=O)[nH]c3cc(C(=O)N4CCN(c5cccc(Cl)c5)CC4)ccc3c2=O)cc1,"inconclusive [inhibitor, single point]"
13,Cc1ccc(C(=O)Cn2cnc3ccccc3c2=O)cc1,"inconclusive [inhibitor, single point]"
14,Cc1ccc(Cn2nc(C)c(C(=O)N3CCN(S(=O)(=O)/C=C/c4ccccc4)CC3)c2C)cc1,inactive
15,Cc1c(OCC(=O)N2CCC(C(=O)O)CC2)ccc2c3c(c(=O)oc12)CCC3,"inconclusive [inhibitor, full curve, poor fit]"
16,O=C(c1ccco1)N1CCN(Cc2nc(-c3cccs3)no2)CC1,inactive
17,CC1CC(C)CN(CC(O)COCc2ccccc2)C1 (stereo not drawn),"inconclusive [inhibitor, full curve, poor fit]"
18,CC1CCN(C(=O)Cn2cc(SCC(=O)NCc3ccccc3Cl)c3ccccc32)CC1,inactive
19,CCCN1CCN(c2nc3c([nH]2)c(=N)ncn3CC(O)CO)CC1 (stereo not drawn),"inconclusive [inhibitor, partial curve, poor fit]"
20,CC(C)COc1cccc(C(=O)Nc2ccc(-c3nc4ncccc4o3)cc2)c1,inactive
21,Cc1cc(C)c(S(=O)(=O)c2ccccc2Cl)c(Cl)n1,"inconclusive [inhibitor, full curve]"
22,CCN(CC)C(=O)CN(c1cc(Cl)ccc1OC)S(=O)(=O)c1ccc(C)c([N+](=O)[O-])c1,"inconclusive [inhibitor, full curve, poor fit]"
23,N#Cc1cc(C(=O)c2cc(Br)ccc2O)cn(C2CC2)c1=O,inactive

row,Structure (SMILES),Potency
1,COC(=O)CN(C(=O)CSc1nnc(-c2cccc(OC)c2)o1)c1ccc(OC)cc1,inactive
2,Clc1ccccc1CSc1nncn1-c1cccnc1,inactive
3,CC(=O)NC1(c2cccc(F)c2)CCN(CC(=O)NC2CCCCC2)CC1,"inconclusive [inhibitor, full curve]"
4,Cc1cc(C)c(NC(=O)CSc2nc3ccccc3nc2N2CCCCC2)c(C)c1,inactive
5,CCN(C(=O)CN1CCC(C)CC1)c1c(N)n(Cc2ccccc2)c(=O)[nH]c1=O,"inconclusive [inhibitor, single point]"
6,CCOc1ccc(NC(=O)NCc2ccccn2)cc1,"inconclusive [inhibitor, full curve]"
7,COc1cc2ccccc2cc1C(=O)Nc1sc2c(c1C(N)=O)CCN(C(C)C)C2,inactive
8,O=C(CNc1cc(S(=O)(=O)N2CCOCC2)ccc1NCC1CCCO1)Nc1ccc(C(F)(F)F)cc1 (stereo not drawn),"inconclusive [inhibitor, full curve]"
9,Cc1cc(C)n2ncnc2n1,"inconclusive [inhibitor, full curve, poor fit]"
10,Cc1ccccc1-c1cc(C(=O)Nc2sc(C)c(C)c2C(N)=O)c2ccccc2n1,inactive
11,O=C(C(c1ccccc1)c1ccccc1)N1CCN(Cc2ccncc2)CC1,"inconclusive [inhibitor, partial curve, poor fit]"
12,COC(=O)c1c(C(=O)OC)c(C)n(Cc2cccnc2)c1C,"inconclusive [inhibitor, full curve, poor fit]"
13,COc1ccccc1NC(=O)Cn1c(=O)n(Cc2ccccc2)c(=O)c2sc3ccccc3c21,inactive
14,COc1ccc(OC)c(NC(=O)CN(C)S(=O)(=O)c2ccc(C(=O)N3CCOCC3)s2)c1,"inconclusive [inhibitor, single point]"
15,CCOc1cc(C(=O)O)cc(Cl)c1OCC#N,"inconclusive [inhibitor, full curve, poor fit]"
16,Cc1ccc(C)c(N2C(=O)CC(Cc3ccc(Br)cc3)C2=O)c1 (stereo not drawn),"inconclusive [inhibitor, full curve, poor fit]"
17,Cc1ccc2[nH]c3nc(SCCN4CCOCC4)nnc3c2c1,"inconclusive [inhibitor, full curve, poor fit]"
18,Nc1nonc1C(=O)NC(c1ccccc1)c1ccccc1,"inconclusive [inhibitor, full curve]"
19,COc1ccc2[nH]cc(CCN=C(N)N)c2c1,"inconclusive [inhibitor, single point]"
20,Cc1cccc(CN2CCC(C(=O)Nc3cccc(-c4cscn4)c3)CC2)n1,"inconclusive [inhibitor, full curve, poor fit]"
21,COc1ccc(S(=O)(=O)N(C)CC(=O)NCCC2=CCCCC2)cc1,"inconclusive [inhibitor, single point]"
22,CCCCCCCCCCCCCCCC(=O)OC[C@H](COP(=O)([O-])OCC[N+](C)(C)C)OC(=O)CCCCCCCCCCCCCCC,"inconclusive [inhibitor, full curve, poor fit]"
